{
  "source": "paper PMC12136788",
  "binders": {"B1": {"name": "chr1:35190724:35191005:-|CDS|ENSG00000116560|unk|total|mutant (ssRNA)", "RNA": "GGGAGUUCUACAGUCCGACGAUCGCCCUUUCUGUUCGUAAUCUUUCACCUUAUGUUUCCAAUGAACUGUUGGAAGAAGCCUUCCGCCAAUUUGGUCCUAUUGAAAGGGCUGUUGUAACCGUGGAUGAUCGUGGAAGAUCUACACAACAGAGGAUUGAGCAUCA"}, "B2": {"name": "chr17:81509976:81510077:-|3pUTR|ENSG00000184009|msi1|total|mutant (ssRNA)", "RNA": "GGGAGUUCUACAGUCCGACGAUCUCUCGAUUCUUUGAAGAGAUGACAACAAAUUUUGGUUUUCUACUGUUAUGUGAGAACAUCCGGCCCCAGCAACACGUCAUUGUGUAAGGAAAAAUAAAAGUGCUGCCGUAACCAAUGAAUCAACAGAGGAUUGAGCAUCA"}, "B3": {"name": "chr12:6965580:6965681:-|3pUTR|ENSG00000215021|unk|total|mutant (ssRNA)", "RNA": "GGGAGUUCUACAGUCCGACGAUCGUCAUUAUCUAUCUUUUUUUUCCUACAGUGACAGCCUCAUCAAGGGUAAGAAAUGAGCCCCGUCACCAAGAACUCCACCCCCAGAGGAAGUGGAUCUGCUUCUCCAGUUUUUGAGGAGCCCAACAGAGGAUUGAGCAUCA"}, "B4": {"name": "chrX:30854639:30854752:-|CDS|ENSG00000157625|unk|FALSE|bound_elsewhere (ssRNA)", "RNA": "GGGAGUUCUACAGUCCGACGAUCUUCAGCUCUCCACAGCAUCAAGUGCAACCUUCCCAGUUGGGCCACAUCUUUAUGCCACCUAGUCCUUCAACUACUCCACCCCAUCCAUAUCAACAAGGACCUCCUAGCUAUCAGAAACAGCAACAGAGGAUUGAGCAUCA"}, "B5": {"name": "chr7:74121655:74121756:+|3pUTR|ENSG00000106683|msi1|FALSE|unique (ssRNA)", "RNA": "GGGAGUUCUACAGUCCGACGAUCGCCCCUUUCCACACGCCGCUGCCCCAGCAACCCUGUUCACGCUCCACCUGUCUGGUCCAUAGCUCCCUGGAGGCUGGGCCAGGAGGCAGCCUCCGAACCAUGCCCCAUAUAACGCUUGGGCAACAGAGGAUUGAGCAUCA"}, "B6": {"name": "ENSG00000198589:be:win_3701|CDS|ENSG00000198589|bound_else_gene|NA|bound_elsewhere_windowed (ssRNA)", "RNA": "GGGAGUUCUACAGUCCGACGAUCAGGCUUCUUCUGAGCAAAAGAUUGCGAAGUUGGAUGUUUCCAAUGUUGCUACAGAUACUGAGAGGCUGGAGUUGAAGGCCAGUCCCAACGUGGAAGCACCUCAACCUCAUCGACAUGUGCCAACAGAGGAUUGAGCAUCA"}, "B7": {"name": "chr4:25747873:25747886:-|3pUTR|ENSG00000091490|msi1_unk|FALSE|overlapping (ssRNA)", "RNA": "GGGAGUUCUACAGUCCGACGAUCUAGCAGUUAUAAGGCACCUUGAAAUAAAUUGUUUGUGCCUGGAAAUGCAGGGAGGGCAAUAGCUUUGUAAAUUGGUUUACAUUUUUCUCCUUGAAUUUUUCUAGGGUCCUAGUGCUUCCGCAACAGAGGAUUGAGCAUCA"}, "B8": {"name": "chr6:36855602:36855703:-|3pUTR|ENSG00000137168|msi1|total|mutant (ssRNA)", "RNA": "GGGAGUUCUACAGUCCGACGAUCGUCAUGAAGCUCCGGAGGCCUGGCAUCUUGGGUGAGUCCGAGAUGGAAGUACAUUUUAACCGGAUGCUUCUUUUCUCUUCCCCCAGUGCCCCGGUUGCCAGAGCAUUUGCACAAAUGCCCCAACAGAGGAUUGAGCAUCA"}, "B9": {"name": "ENSG00000198589:be:win_1901|CDS|ENSG00000198589|bound_else_gene|NA|bound_elsewhere_windowed (ssRNA)", "RNA": "GGGAGUUCUACAGUCCGACGAUCGUGGUAUCACCCCAAAAGGAUUAGAUGGACCGCGACCUAAUCAAAAAGAAAUGCUUUCUCUACGAGCAUUCUUGUUGAUGUUCAUUAAGCAAUUAGUGAUGAAGGAUUCUGGAGUAAAGGCAACAGAGGAUUGAGCAUCA"}, "B10": {"name": "ENSG00000198589:be:win_6051|CDS|ENSG00000198589|bound_else_gene|NA|bound_elsewhere_windowed (ssRNA)", "RNA": "GGGAGUUCUACAGUCCGACGAUCAGAUGAAGAUAUCCUUGCUAAAGGAAAACAGUCCAUCAGGAGUCAGGCUUUAGGAAAUCAGAACUCAGAAAACGAGAUCCUCCUGGAAGGCGAUGAUGAUACUCUGUCAUCCGUGGAUGACAACAGAGGAUUGAGCAUCA"}, "B11": {"name": "chr9:34664162:34665309:-|three_prime_utr|ENSG00000187186|control|control|control (ssRNA)", "RNA": "GGGAGUUCUACAGUCCGACGAUCGGACCCGCCCCGGGCAUGGACGGGACUCAGUCUCUGAGGACCCAUCGGGGGGAAUCCGGUAGCUCCCGCCCCGCCUCAUGCCAGUGUCGGGUCGCCCCACAGCUCGGCGCACCCCGGGGACAACAGAGGAUUGAGCAUCA"}, "B12": {"name": "ENSG00000198589:be:win_9251|3pUTR|ENSG00000198589|bound_else_gene|NA|bound_elsewhere_windowed (ssRNA)", "RNA": "GGGAGUUCUACAGUCCGACGAUCGGAAAUGCUCUUGAGCUCACAACAUUUGUUUUUCUUUUAAAGUAAAUGCAAGUACCAAAGCUCACUACUGCGGUUUGCCUGUGCCUGGACAAUGAGGCGGAGCCACUGUUGUUUUGUUGGCAACAGAGGAUUGAGCAUCA"}, "B13": {"name": "chr15:34752480:34753372:-|CDS|ENSG00000159248|control|control|control (ssRNA)", "RNA": "GGGAGUUCUACAGUCCGACGAUCCCCCUGCAUCAAGGAGGUGGAAUGUUAUGUGUCCCGGCCAACUGAGAAGACUGUCUUUCUAGUGUUCAUGUUUGCUGUAAGUGGCAUCUGUGUUGUGCUCAACCUGGCUGAACUCAACCACAACAGAGGAUUGAGCAUCA"}, "B14": {"name": "chr11:128839127:128840264:-|CDS|ENSG00000151704|control|control|control (ssRNA)", "RNA": "GGGAGUUCUACAGUCCGACGAUCAAGACAGUGGAAGUGGAGACCCCUCACUGUGCCAUGUGCCUUUAUAAUGAGAAAGAUGUUAGAGCCAGGAUGAAGAGAGGCUAUGACAACCCCAACUUCAUCUUGUCAGAAGUCAAUGAACAACAGAGGAUUGAGCAUCA"}, "B15": {"name": "chr3:53865378:53865479:+|3pUTR|ENSG00000056736|unk|FALSE|unique (ssRNA)", "RNA": "GGGAGUUCUACAGUCCGACGAUCAUUACAGGGAAAAAACGUGUGAUGAUCCUGAAGCUUACUAUGCAGCCUACAAACAGCCUUAGUAAUUAAAACAUUUUAUACCAAUAAAAUUUUCAAAUAUUGCUAACUAAUGUAGCAUUACAACAGAGGAUUGAGCAUCA"}, "B16": {"name": "chr1:207898972:207899226:-|CDS|ENSG00000174059|control|control|control (ssRNA)", "RNA": "GGGAGUUCUACAGUCCGACGAUCACAACCUUGAAGCCUAGCCUGUCACCUGGAAAUGUUUCAGACCUUUCAACCACUAGCACUAGCCUUGCAACAUCUCCCACUAAACCCUAUACAUCAUCUUCUCCUAUCCUAAGUGACAUCCAACAGAGGAUUGAGCAUCA"}, "B17": {"name": "ENSG00000107863:be:win_4001|CDS|ENSG00000107863|bound_else_gene|NA|bound_elsewhere_windowed (ssRNA)", "RNA": "GGGAGUUCUACAGUCCGACGAUCACCAUGACUGGUUUUUCACAGAAGAAGGUGCUGAAGAGCCUCUUACAACAGUGCAGGAGGAAAGCACAGUAGACUCCCAGCCAGUGCCAAACAUAGAUCAUUUACUCACCAACAUUGGAACAACAGAGGAUUGAGCAUCA"}, "B18": {"name": "ENSG00000177426:stop:overlap|stop_codon|ENSG00000177426|stop_codon|NA|stop_codon (ssRNA)", "RNA": "GGGAGUUCUACAGUCCGACGAUCCUCAAAGACAGAAGGAAUAUCUUUUUAUUGUAAACUUGAUAGUGUUAAAAGCUAAUAACUAGCUAUUUAGAGAACACAGAAACACUUGACAGUCAUCUAUCAGAUAGCAUUUCCUUUAAUCAACAGAGGAUUGAGCAUCA"}, "B19": {"name": "chr20:58910839:58911044:+|3pUTR|ENSG00000087460|msi1_unk|total|mutant (ssRNA)", "RNA": "GGGAGUUCUACAGUCCGACGAUCCCUUAAGCACAAUUAAUUAAAAGUGAAACGUAAUUGUACAAGCAGUUAAUCACCCACCACCGGGCAUGAUUAACAAAGCAACCUUUCCCUUCCCCCGAGUGAUUUUGCGAAACCCCCUUUCAACAGAGGAUUGAGCAUCA"}, "B20": {"name": "chr8:76866408:76866523:+|3pUTR|ENSG00000091656|unk|total|mutant (ssRNA)", "RNA": "GGGAGUUCUACAGUCCGACGAUCUAUUCUAUACAUUUUAUGUGAACUUUUUUAAUGUCUUUAAUUUGGAUUUUUUUUUUUUUCCGUAUUUUAACAUUUAUUUUAAUCCUGAAGACACUUUUUUGAUUGUGUUUCGUAAGAGACCAACAGAGGAUUGAGCAUCA"}, "B21": {"name": "chr10:91841327:91841437:+|CDS|ENSG00000107854|unk|total|mutant (ssRNA)", "RNA": "GGGAGUUCUACAGUCCGACGAUCUUCUUAUGGACAUUAUGAAGUUGCAGAACUUCUUGUUAAACAUGGAGCAGCCGUUAAUGCCGCUGAUUUAUGGAAAUUUACACCUUUACAUGAAGCAGCAGCAAAAGGAAAAUAUGAAAUCAACAGAGGAUUGAGCAUCA"}, "B22": {"name": "ENSG00000105953:stop:overlap|stop_codon|ENSG00000105953|stop_codon|NA|stop_codon (ssRNA)", "RNA": "GGGAGUUCUACAGUCCGACGAUCCGGAGCUGCAGCGCCUCCUGGACACGGCCUUCGACCUGGACGUCUUCAAGAACUUCUCGUAGAUGCUGCCUAGGGUUGCUUGGGCCACUGCCCUCUCCACACCCAUGACUGCCCCUUGCUCAACAGAGGAUUGAGCAUCA"}},
  "note": "Some of the results follow.",
  "data": [
    {"molecular_target": "MSI1 full-length (mouse, UniProt Q61474 1-362)", "sequence (Q61474 whole entry)": "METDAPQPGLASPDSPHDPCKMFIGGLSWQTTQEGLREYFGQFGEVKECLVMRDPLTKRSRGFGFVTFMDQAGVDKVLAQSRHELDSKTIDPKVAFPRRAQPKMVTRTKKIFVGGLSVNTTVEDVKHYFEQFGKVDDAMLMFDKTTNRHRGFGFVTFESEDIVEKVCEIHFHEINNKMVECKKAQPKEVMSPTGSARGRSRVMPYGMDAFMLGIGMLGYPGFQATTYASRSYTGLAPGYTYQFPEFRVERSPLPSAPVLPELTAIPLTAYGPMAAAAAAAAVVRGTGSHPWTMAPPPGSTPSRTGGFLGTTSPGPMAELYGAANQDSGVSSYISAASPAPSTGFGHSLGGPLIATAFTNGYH", "assay": "nsRBNS (natural sequence RNA bind-n-seq); RBNS binding buffer (assumed for nsRBNS): 25 mM Tris pH 7.5, 150 mM KCl, 3 mM MgCl2, 0.01% Triton X-100, 500 ug/ml BSA, 20 U/ml SUPERase-In, 4 C; UNK is unkempt and MSI1 is Musashi-1; names of the RNAs are library labels; protein concentration not given here; high values mean tight binding", "units": {"binding signal": "enrichment R"}, "values": [
      {"binder": "B1", "binding signal": 0.356},
      {"binder": "B2", "binding signal": 0.215},
      {"binder": "B3", "binding signal": 0.924},
      {"binder": "B4", "binding signal": 1.34},
      {"binder": "B5", "binding signal": 1.06},
      {"binder": "B6", "binding signal": 0.294},
      {"binder": "B7", "binding signal": 1.14},
      {"binder": "B8", "binding signal": 0.299},
      {"binder": "B9", "binding signal": 0.39},
      {"binder": "B10", "binding signal": 0.27},
      {"binder": "B11", "binding signal": 0.3},
      {"binder": "B12", "binding signal": 0.354},
      {"binder": "B13", "binding signal": 0.35},
      {"binder": "B14", "binding signal": 0.364},
      {"binder": "B15", "binding signal": 0.374},
      {"binder": "B16", "binding signal": 4.77},
      {"binder": "B17", "binding signal": 1.02},
      {"binder": "B18", "binding signal": 0.812},
      {"binder": "B19", "binding signal": 0.782},
      {"binder": "B20", "binding signal": 2.46},
      {"binder": "B21", "binding signal": 0.37},
      {"binder": "B22", "binding signal": 0.678}
    ]}
  ]
}
